Measured values reported in the antibiotic and cytotoxicity screens of Wong et al. (2023).
The other results are listed elsewhere or left out.

Experiments:
[1] = system: HSkMC (human skeletal muscle cells); test: cytotoxicity call (relative viability < 0.9); conditions: 10 µM
[2] = system: HepG2; test: cytotoxicity call (relative viability < 0.9); conditions: 10 µM
[3] = system: S. aureus RN4220; test: growth inhibition call (relative growth <= 0.2); conditions: 50 µM

Row | SMILES | cytotoxicity call [1] | cytotoxicity call [2] | growth inhibition call [3]
1 | C[C@@H]1CCCCO[C@@H](CN(C)Cc2ccc(Cl)c(Cl)c2)[C@@H](C)CN([C@H](C)CO)C(=O)c2cc(NC(=O)c3ccccc3)ccc2O1 | inactive | inactive | inactive
2 | C[C@@H]1CN([C@@H](C)CO)C(=O)CCCn2nncc2CO[C@H]1CN(C)C(=O)Nc1ccc(N2CCN(C)CC2)cc1 | inactive | inactive | inactive
3 | COc1cccc(S(=O)(=O)N[C@@H]2C=C[C@H](CC(=O)NC3CCC3)O[C@H]2CO)c1 | inactive | inactive | inactive
4 | C[C@H]1CN([C@@H](C)CO)S(=O)(=O)c2ccc(C#CCN(C)C)cc2O[C@@H]1CN(C)C(=O)c1ccccc1F | inactive | inactive | inactive
5 | S=C=Nc1ccc(N=C=S)cc1 | inactive | inactive | inactive
6 | COc1ccc(C(=O)Nc2ccc3c(c2)C(=O)N(C)[C@@H]2CC[C@H](CC(=O)NCC4CC4)O[C@H]2CO3)cc1 | inactive | active | inactive
7 | CC(=O)N(C)C[C@@H]1Oc2ncc(C#C[C@@H](C)O)cc2C(=O)N([C@H](C)CO)C[C@@H]1C | inactive | inactive | inactive
8 | O=C1CN(S(=O)(=O)Cc2ccccc2)C[C@H]2[C@H](c3ccc(C#Cc4cccc(F)c4)cc3)[C@H](CO)N12 | active | active | inactive
9 | COCC(=O)Nc1ccc2c(c1)C(=O)N(C)C[C@H](OC)[C@H](C)CN(C(=O)Cc1cccnc1)[C@H](C)CO2 | inactive | inactive | inactive
10 | CCOC(=O)c1c(C)cc(OC)cc1O | inactive | active | inactive
11 | Cc1noc(C)c1S(=O)(=O)Nc1ccc2c(c1)CC(=O)N([C@H](C)CO)C[C@H](C)[C@@H](CN(C)Cc1ccc3c(c1)OCO3)O2 | inactive | inactive | inactive
